{"source": "the RNAGym collection of RNA variant scans (doi:10.7554/elife.90254)", "parents": {"B1": {"name": "OR4K15 (parent)", "chain": "GUUAACGGUCAUAGGCCAUGGAAACUAGGAGCACCAUUUCGCUGCCAGUGAAGAAAUGAACAAAGAAAAUCUGGGCCAGGCAGGCAUCAAAAGAAAUAGUCUUGCGCUCAACCAGAAAGUCUGUAAUCAUUUUAAGGGUA"}}, "note": "The source gives no read counts; variants with many changes may rest on few reads.", "data": [{"variants_of": "B1", "test": "self-cleavage, relative activity (ratio to wild type); higher = more cleavage; in vitro, sequencing; the parent is a self-cleaving ribozyme", "values": [{"variant": "G14U A55G A111G", "self-cleavage": 0.05}, {"variant": "A13G A62G A92G A135G", "self-cleavage": 0.79}, {"variant": "C16U A55G U87C U103A", "self-cleavage": 0.57}, {"variant": "G14A A54G U122C", "self-cleavage": 0.22}, {"variant": "A13G C40A A91G A92G", "self-cleavage": 1.65}, {"variant": "C16G A52G G74U U87C", "self-cleavage": 0.23}, {"variant": "U12C A55G A56U A118G A135G", "self-cleavage": 0.16}, {"variant": "U12C U70A A118C", "self-cleavage": 0.31}, {"variant": "C16U U43C U108C A116G", "self-cleavage": 0.03}, {"variant": "U12C A51U U108A", "self-cleavage": 0.03}, {"variant": "U12C A24G A63G A95G", "self-cleavage": 1.76}, {"variant": "U12C G28A U72A A118G", "self-cleavage": 0.04}, {"variant": "G15U A92G A126U", "self-cleavage": 0.6}, {"variant": "C16G A18G U49C A62U A82U", "self-cleavage": 0.08}, {"variant": "U12C A56G U127C", "self-cleavage": 1.24}, {"variant": "A13G A91G A117G A125G", "self-cleavage": 0.58}, {"variant": "G15A A60G G136A", "self-cleavage": 1.23}, {"variant": "A13G A18G U37A", "self-cleavage": 0.74}, {"variant": "A13G U38A U57G U122A", "self-cleavage": 0.92}, {"variant": "A13G U26C A114U", "self-cleavage": 0.19}, {"variant": "U12C A23G U127A", "self-cleavage": 1.29}, {"variant": "A13G G74A C76U", "self-cleavage": 0.33}, {"variant": "U12C U108C U120C U139A", "self-cleavage": 0.01}, {"variant": "G15C A56G U100C", "self-cleavage": 2}, {"variant": "A13U A47C U87C A92C A118U", "self-cleavage": 0.12}, {"variant": "A13G U72A A126G", "self-cleavage": 0.2}, {"variant": "G15U A18G U19C A27G G29A U43C U72G A91G", "self-cleavage": 0.16}, {"variant": "C16U G50A A67G U103C U132C", "self-cleavage": 0.31}, {"variant": "A13G G48A A78G U100C A125G", "self-cleavage": 0.32}, {"variant": "A13G A59G A116G U133C", "self-cleavage": 0.42}, {"variant": "G14A A60G A68G U102C", "self-cleavage": 0.99}, {"variant": "A13U A68G U70C A86C U139C", "self-cleavage": 0.42}, {"variant": "A13U A66G G79U A82U A96G", "self-cleavage": 0.14}, {"variant": "U12C U87A U102C", "self-cleavage": 1.14}, {"variant": "G14A A22G A95G", "self-cleavage": 1.57}, {"variant": "C16U A47C A64G A66G U122C", "self-cleavage": 1.06}, {"variant": "U12C A111G A114U", "self-cleavage": 0}, {"variant": "A13G A23G A135G", "self-cleavage": 1.05}, {"variant": "A13G A56C A69G U132C", "self-cleavage": 0.46}, {"variant": "A13G A22U U122A", "self-cleavage": 1.48}, {"variant": "A13U U57C A94C", "self-cleavage": 0.52}, {"variant": "A13C U57C A67G U122C", "self-cleavage": 1.2}, {"variant": "G15U A22G A96G", "self-cleavage": 0.86}, {"variant": "A13U A78G A126G A134U", "self-cleavage": 0.15}, {"variant": "A13G U26C U43A", "self-cleavage": 0.03}, {"variant": "C16U A27U G99U", "self-cleavage": 0.78}, {"variant": "C16G A23G C25U U131C", "self-cleavage": 0.25}, {"variant": "C16U A67G A126G", "self-cleavage": 1.02}, {"variant": "A13G A33G A36G A82U A98U U103C", "self-cleavage": 0.49}, {"variant": "U12C A69G A96G", "self-cleavage": 1.58}, {"variant": "G14U A24U U72A U127C", "self-cleavage": 0.19}, {"variant": "U12C A27G A56G A91G A118G", "self-cleavage": 0.4}, {"variant": "A13G A55G U102A", "self-cleavage": 0.44}, {"variant": "A13G A24G A59G A68G C88G U127C", "self-cleavage": 0.84}, {"variant": "U12C A22G U108A", "self-cleavage": 0.05}, {"variant": "A13G U39C A91G A140G", "self-cleavage": 1.41}, {"variant": "C17U C85U A125G A140G", "self-cleavage": 0.12}, {"variant": "A13U A23G U49C A63G U122C U130G", "self-cleavage": 0.69}, {"variant": "C17A A54U A60G", "self-cleavage": 0.49}, {"variant": "A13U A47G U57C A78U U131C", "self-cleavage": 0.48}, {"variant": "A13G A22G U103C", "self-cleavage": 1.24}, {"variant": "A13G A52G U103G", "self-cleavage": 0.17}, {"variant": "G15A U57C A114G", "self-cleavage": 0.09}, {"variant": "A13C A59G U72G A94G", "self-cleavage": 0.36}, {"variant": "C17U U19C A30G A67G A68G U122C U131C", "self-cleavage": 0.82}, {"variant": "A13G A126G U127C", "self-cleavage": 0.38}, {"variant": "A13G G104A A116G", "self-cleavage": 0.13}, {"variant": "C17U A126G U139C A140U", "self-cleavage": 0.3}, {"variant": "A13G A24G A91G", "self-cleavage": 1.5}, {"variant": "U12C A24G A27U U38C U108C U132A", "self-cleavage": 0.31}, {"variant": "A13U A116G U120C", "self-cleavage": 0.02}, {"variant": "A13G U39A A125G", "self-cleavage": 0.51}, {"variant": "U12C A63G A67C A92U", "self-cleavage": 1.51}, {"variant": "A13G A30G A33G", "self-cleavage": 1.07}, {"variant": "G14A A23U U127C", "self-cleavage": 0.73}, {"variant": "U12C A27G A47U", "self-cleavage": 0.63}, {"variant": "U12C U38A A86G U131A", "self-cleavage": 0.32}, {"variant": "C17U A95G G106A", "self-cleavage": 0.01}, {"variant": "A13G U38C A94G", "self-cleavage": 0.66}, {"variant": "A13G A18G U37C G83C U108C A140U", "self-cleavage": 0.02}, {"variant": "A13G U37C A67U A135U", "self-cleavage": 1.67}, {"variant": "A13G U19C A94U U130C", "self-cleavage": 1.1}, {"variant": "A13G A117G U127C", "self-cleavage": 1.53}]}]}
